# Reference: the supplement of paper PMC6657886
# MIC of clinical N. gonorrhoeae isolates (2015-2017) by agar dilution on GC agar with 1% IsoVitaleX (ranges not stated); higher = less susceptible. No active / inactive call per row; the paper counts benzylpenicillin above 1 and ceftriaxone above 0.125 mg/L as resistant (EUCAST). The method is stated for benzylpenicillin and ceftriaxone and assumed for the other drugs. '<=' is inferred from pile-ups at the end values. Isolates are numbered anew.
# How the values were obtained:
# Assay in all cases: Agar dilution on enriched GC agar; resistance determinants by microarray.
# [1] = compound: CC1(C)S[C@@H]2[C@H](NC(=O)Cc3ccccc3)C(=O)N2[C@H]1C(=O)O [benzylpenicillin]
# [2] = compound: CN[C@@H]1[C@H](O)[C@H](NC)[C@H]2O[C@@]3(O)C(=O)C[C@@H](C)O[C@H]3O[C@@H]2[C@H]1O [spectinomycin]
# [3] = compound: CO/N=C(\C(=O)N[C@@H]1C(=O)N2C(C(=O)O)=C(CSc3nc(=O)c(O)nn3C)CS[C@H]12)c1csc(N)n1 [ceftriaxone]
# [4] = compound: CN(C)[C@@H]1C(O)=C(C(N)=O)C(=O)[C@@]2(O)C(O)=C3C(=O)c4c(O)cccc4[C@@](C)(O)[C@H]3C[C@@H]12 [tetracycline]
# [5] = compound: CC[C@H]1OC(=O)[C@H](C)[C@@H](O[C@H]2C[C@@](C)(OC)[C@@H](O)[C@H](C)O2)[C@H](C)[C@@H](O[C@@H]2O[C@H](C)C[C@H](N(C)C)[C@H]2O)[C@](C)(O)C[C@@H](C)CN(C)[C@H](C)[C@@H](O)[C@]1(C)O [azithromycin]
Test System,MIC [1] [µg/mL],MIC [2] [µg/mL],MIC [3] [µg/mL],MIC [4] [µg/mL],MIC [5] [µg/mL]
"Neisseria gonorrhoeae isolate 374 (blaTEM plasmid: no, gyrA: Ser91, Asn95, mtrR promoter: -35delA, parC: Ser87, Gly 91, penA: ins345Asp, ponA: Pro421, porB: Asn120, Asp121, rpsJ: Met57, tetM plasmid: no)",0.25,16,0.015,1,0.25
"Neisseria gonorrhoeae isolate 465 (blaTEM plasmid: no, gyrA: wild type, mtrR promoter: wild type, parC: wild type, penA: wild type, ponA: wild type, porB: wild type, rpsJ: wild type, tetM plasmid: no)",≤ 0.015,16,≤ 0.002,0.25,0.12
"Neisseria gonorrhoeae isolate 258 (blaTEM plasmid: no, gyrA: wild type, mtrR promoter: wild type, parC: wild type, penA: ins345Asp, ponA: wild type, porB: wild type, rpsJ: wild type, tetM plasmid: no)",0.06,32,0.004,0.25,0.06
"Neisseria gonorrhoeae isolate 295 (blaTEM plasmid: no, gyrA: wild type, mtrR promoter: wild type, parC: wild type, penA: ins345Asp, ponA: wild type, porB: wild type, rpsJ: wild type, tetM plasmid: no)",0.25,32,0.004,0.06,0.008
"Neisseria gonorrhoeae isolate 260 (blaTEM plasmid: no, gyrA: wild type, mtrR promoter: wild type, parC: wild type, penA: wild type, ponA: wild type, porB: wild type, rpsJ: wild type, tetM plasmid: no)",≤ 0.015,32,≤ 0.002,0.25,0.12
"Neisseria gonorrhoeae isolate 78 (blaTEM plasmid: no, gyrA: Thr91, Gly95, mtrR promoter: wild type, parC: wild type, penA: ins345Asp, ponA: Pro421, porB: Asp120, Gly121, rpsJ: Met57, tetM plasmid: yes)",0.06,16,≤ 0.002,4,0.015
"Neisseria gonorrhoeae isolate 172 (blaTEM plasmid: no, gyrA: Phe91, Asn95, mtrR promoter: -35delA, parC: Arg87, Glu91, penA: ins345Asp, ponA: Pro421, porB: Asn120, Asp121, rpsJ: Met57, tetM plasmid: no)",0.5,16,0.015,2,0.25
"Neisseria gonorrhoeae isolate 253 (blaTEM plasmid: no, gyrA: Phe91, Asn95, mtrR promoter: wild type, parC: Arg87, Glu91, penA: ins345Asp, ponA: Pro421, porB: wild type, rpsJ: Met57, tetM plasmid: no)",1,16,≤ 0.002,0.5,0.06
"Neisseria gonorrhoeae isolate 444 (blaTEM plasmid: no, gyrA: Phe91, Asn 95, mtrR promoter: -35delA, parC: Ser87, Gly91, penA: ins345Asp, ponA: Pro421, porB: Asn120, Asp121, rpsJ: Met57, tetM plasmid: no)",0.06,16,0.008,2,0.25
"Neisseria gonorrhoeae isolate 399 (blaTEM plasmid: no, gyrA: wild type, mtrR promoter: wild type, parC: wild type, penA: ins345Asp, ponA: wild type, porB: wild type, rpsJ: wild type, tetM plasmid: no)",≤ 0.015,8,≤ 0.002,0.06,0.06
"Neisseria gonorrhoeae isolate 136 (blaTEM plasmid: no, gyrA: Phe91, Asn95, mtrR promoter: -35delA, parC: Arg87, Glu91, penA: ins345Asp, ponA: Pro421, porB: wild type, rpsJ: Met57, tetM plasmid: no)",0.5,16,0.015,2,0.5
"Neisseria gonorrhoeae isolate 117 (blaTEM plasmid: no, gyrA: Phe91, Gly95, mtrR promoter: wild type, parC: Arg87, Glu91, penA: ins345Asp, ponA: Pro421, porB: Asp120, Ala121, rpsJ: Met57, tetM plasmid: no)",0.25,32,0.015,0.5,0.015
"Neisseria gonorrhoeae isolate 477 (blaTEM plasmid: no, gyrA: wild type, mtrR promoter: wild type, parC: wild type, penA: ins345Asp, ponA: Pro421, porB: wild type, rpsJ: Met57, tetM plasmid: no)",0.12,16,≤ 0.002,0.5,0.12
"Neisseria gonorrhoeae isolate 243 (blaTEM plasmid: no, gyrA: Phe91, Asn95, mtrR promoter: -35delA, parC: wild type, penA: ins345Asp, ponA: Pro421, porB: wild type, rpsJ: Met57, tetM plasmid: no)",0.25,32,0.03,1,0.06
"Neisseria gonorrhoeae isolate 195 (blaTEM plasmid: no, gyrA: wild type, mtrR promoter: wild type, parC: wild type, penA: wild type, ponA: wild type, porB: wild type, rpsJ: wild type, tetM plasmid: no)",0.03,32,≤ 0.002,0.25,0.25
"Neisseria gonorrhoeae isolate 372 (blaTEM plasmid: no, gyrA: Phe91, Asn 95, mtrR promoter: wild type, parC: Arg 87, Glu91, penA: ins345Asp, ponA: Pro421, porB: Gly120, Gly121, rpsJ: Met57, tetM plasmid: no)",1,32,≤ 0.002,0.5,0.03
"Neisseria gonorrhoeae isolate 165 (blaTEM plasmid: no, gyrA: wild type, mtrR promoter: wild type, parC: wild type, penA: ins345Asp, ponA: wild type, porB: wild type, rpsJ: Met57, tetM plasmid: no)",≤ 0.015,32,≤ 0.002,0.5,0.12
"Neisseria gonorrhoeae isolate 215 (blaTEM plasmid: no, gyrA: wild type, mtrR promoter: wild type, parC: wild type, penA: ins345Asp, ponA: wild type, porB: wild type, rpsJ: wild type, tetM plasmid: no)",0.12,16,0.008,0.25,0.12
"Neisseria gonorrhoeae isolate 96 (blaTEM plasmid: no, gyrA: Phe91, Gly95, mtrR promoter: wild type, parC: Arg 87, Glu91, penA: ins345Asp, ponA: Pro421, porB: Lys 120, Gly121, rpsJ: Met57, tetM plasmid: no)",2,16,≤ 0.002,1,0.12
"Neisseria gonorrhoeae isolate 110 (blaTEM plasmid: no, gyrA: wild type, mtrR promoter: wild type, parC: wild type, penA: wild type, ponA: wild type, porB: wild type, rpsJ: wild type, tetM plasmid: no)",≤ 0.015,32,0.004,0.5,0.12
"Neisseria gonorrhoeae isolate 197 (blaTEM plasmid: no, gyrA: Phe91, Asn 95, mtrR promoter: -35delA, parC: wild type, penA: ins345Asp, ponA: Pro421, porB: Asn120, Asp121, rpsJ: Met57, tetM plasmid: no)",2,8,0.03,0.5,0.25
"Neisseria gonorrhoeae isolate 272 (blaTEM plasmid: no, gyrA: Phe91, Gly95, mtrR promoter: -35delA, parC: Arg87, Glu91, penA: ins345Asp, ponA: Pro421, porB: wild type, rpsJ: Met57, tetM plasmid: no)",0.5,32,0.06,2,0.03
"Neisseria gonorrhoeae isolate 400 (blaTEM plasmid: no, gyrA: Phe91, Asn95, mtrR promoter: wild type, parC: Arg87, Glu91, penA: ins345Asp, ponA: Pro421, porB: Asp120, Gly121, rpsJ: Met57, tetM plasmid: no)",0.5,32,0.008,1,0.06
"Neisseria gonorrhoeae isolate 446 (blaTEM plasmid: no, gyrA: wild type, mtrR promoter: wild type, parC: wild type, penA: ins345Asp, ponA: Pro421, porB: wild type, rpsJ: wild type, tetM plasmid: no)",0.12,8,≤ 0.002,0.12,0.015
"Neisseria gonorrhoeae isolate 156 (blaTEM plasmid: no, gyrA: Phe91, Gly95, mtrR promoter: wild type, parC: wild type, penA: wild type, ponA: wild type, porB: wild type, rpsJ: wild type, tetM plasmid: yes)",0.5,32,0.008,8,0.03
